{"source": "paper PMC2670439", "about": "(Cell, 2009)", "proteins": {"B1": {"name": "CAD-His6 (domain or fragment)", "chain": "not shown"}}, "target": "the molecule itself", "test": "SEC-MALS"}
{"protein": "B1", "values": [{"measurement": "stoichiometry N", "result": 4}]}
